Measured values reported in paper PMC9911399, “Two distinct binding modes provide the RNA-binding protein RbFox with extraordinary sequence specificity”.
Where a chain is given by its changes, count along the chain named. Some of the results follow.

T1: RBFOX1 RRM RbFoxmut (Fox-RRM*) (Homo sapiens, UniProt Q9NWB1 109-208, R118D;E147R;N151S;E152T)
T1 sequence: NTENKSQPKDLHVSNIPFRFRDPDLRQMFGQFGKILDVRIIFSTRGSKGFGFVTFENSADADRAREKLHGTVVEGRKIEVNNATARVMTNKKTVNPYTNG

B1: CGGCGGG (DNA:RNA)
RNA: GGGAGACCGGAAUUCAGAUUGUCCCGGCGGGUUAAAUCCCGUCGUAGCCACCA
DNA 1: CAATCTGAATTCCGGTCTCCC
DNA 2: TGGTGGCTACGACGGGATT
B2: CGACGGC (DNA:RNA)
RNA: B1 RNA with G27A, G31C
DNA 1: CAATCTGAATTCCGGTCTCCC
DNA 2: TGGTGGCTACGACGGGATT
B3: GGUCCUG (DNA:RNA)
RNA: B1 RNA with C25G, G27U, G29C, G30U
DNA 1: CAATCTGAATTCCGGTCTCCC
DNA 2: TGGTGGCTACGACGGGATT
B4: GACAAGG (DNA:RNA)
RNA: B1 RNA with C25G, G26A, G27C, C28A, G29A
DNA 1: CAATCTGAATTCCGGTCTCCC
DNA 2: TGGTGGCTACGACGGGATT
B5: ACUGCCG (DNA:RNA)
RNA: B1 RNA with C25A, G26C, G27U, C28G, G29C, G30C
DNA 1: CAATCTGAATTCCGGTCTCCC
DNA 2: TGGTGGCTACGACGGGATT
B6: UGGACUU (DNA:RNA)
RNA: B1 RNA with C25U, C28A, G29C, G30U, G31U
DNA 1: CAATCTGAATTCCGGTCTCCC
DNA 2: TGGTGGCTACGACGGGATT
B7: AAAGCCA (DNA:RNA)
RNA: GGGAGACCGGAAUUCAGAUUGUCCAAAGCCAUUAAAUCCCGUCGUAGCCACCA
DNA 1: CAATCTGAATTCCGGTCTCCC
DNA 2: TGGTGGCTACGACGGGATT
B8: CAGAUUG (DNA:RNA)
RNA: B1 RNA with G26A, C28A, G29U, G30U
DNA 1: CAATCTGAATTCCGGTCTCCC
DNA 2: TGGTGGCTACGACGGGATT
B9: GCCUCGG (DNA:RNA)
RNA: B1 RNA with C25G, G26C, G27C, C28U, G29C
DNA 1: CAATCTGAATTCCGGTCTCCC
DNA 2: TGGTGGCTACGACGGGATT
B10: CAACAAG (DNA:RNA)
RNA: B1 RNA with G26A, G27A, G29A, G30A
DNA 1: CAATCTGAATTCCGGTCTCCC
DNA 2: TGGTGGCTACGACGGGATT
B11: GCAAGAG (DNA:RNA)
RNA: B1 RNA with C25G, G26C, G27A, C28A, G30A
DNA 1: CAATCTGAATTCCGGTCTCCC
DNA 2: TGGTGGCTACGACGGGATT
B12: ACCUGCC (DNA:RNA)
RNA: B7 RNA with A26C, A27C, G28U, C29G, A31C
DNA 1: CAATCTGAATTCCGGTCTCCC
DNA 2: TGGTGGCTACGACGGGATT
B13: CAAUACG (DNA:RNA)
RNA: B7 RNA with A25C, G28U, C29A, A31G
DNA 1: CAATCTGAATTCCGGTCTCCC
DNA 2: TGGTGGCTACGACGGGATT
B14: AGCGCUC (DNA:RNA)
RNA: B7 RNA with A26G, A27C, C30U, A31C
DNA 1: CAATCTGAATTCCGGTCTCCC
DNA 2: TGGTGGCTACGACGGGATT
B15: UUCCACU (DNA:RNA)
RNA: B7 RNA with A25U, A26U, A27C, G28C, C29A, A31U
DNA 1: CAATCTGAATTCCGGTCTCCC
DNA 2: TGGTGGCTACGACGGGATT
B16: CUAAAGA (DNA:RNA)
RNA: B7 RNA with A25C, A26U, G28A, C29A, C30G
DNA 1: CAATCTGAATTCCGGTCTCCC
DNA 2: TGGTGGCTACGACGGGATT
B17: GCUUCCA (DNA:RNA)
RNA: B7 RNA with A25G, A26C, A27U, G28U
DNA 1: CAATCTGAATTCCGGTCTCCC
DNA 2: TGGTGGCTACGACGGGATT
B18: AGUUGCG (DNA:RNA)
RNA: B1 RNA with C25A, G27U, C28U, G30C
DNA 1: CAATCTGAATTCCGGTCTCCC
DNA 2: TGGTGGCTACGACGGGATT
B19: UCGGGGG (DNA:RNA)
RNA: B1 RNA with C25U, G26C, C28G
DNA 1: CAATCTGAATTCCGGTCTCCC
DNA 2: TGGTGGCTACGACGGGATT
B20: AACUCUU (DNA:RNA)
RNA: B7 RNA with A27C, G28U, C30U, A31U
DNA 1: CAATCTGAATTCCGGTCTCCC
DNA 2: TGGTGGCTACGACGGGATT
B21: CCCGAUA (DNA:RNA)
RNA: B7 RNA with A25C, A26C, A27C, C29A, C30U
DNA 1: CAATCTGAATTCCGGTCTCCC
DNA 2: TGGTGGCTACGACGGGATT
B22: UGAUUGC (DNA:RNA)
RNA: B1 RNA with C25U, G27A, C28U, G29U, G31C
DNA 1: CAATCTGAATTCCGGTCTCCC
DNA 2: TGGTGGCTACGACGGGATT
B23: CCCGACG (DNA:RNA)
RNA: B7 RNA with A25C, A26C, A27C, C29A, A31G
DNA 1: CAATCTGAATTCCGGTCTCCC
DNA 2: TGGTGGCTACGACGGGATT
B24: UGACAUC (DNA:RNA)
RNA: B1 RNA with C25U, G27A, G29A, G30U, G31C
DNA 1: CAATCTGAATTCCGGTCTCCC
DNA 2: TGGTGGCTACGACGGGATT
B25: GGUUCAC (DNA:RNA)
RNA: B7 RNA with A25G, A26G, A27U, G28U, C30A, A31C
DNA 1: CAATCTGAATTCCGGTCTCCC
DNA 2: TGGTGGCTACGACGGGATT
B26: GAGACUG (DNA:RNA)
RNA: B7 RNA with A25G, A27G, G28A, C30U, A31G
DNA 1: CAATCTGAATTCCGGTCTCCC
DNA 2: TGGTGGCTACGACGGGATT
B27: CGUUACU (DNA:RNA)
RNA: B1 RNA with G27U, C28U, G29A, G30C, G31U
DNA 1: CAATCTGAATTCCGGTCTCCC
DNA 2: TGGTGGCTACGACGGGATT
B28: ACCCUCC (DNA:RNA)
RNA: B7 RNA with A26C, A27C, G28C, C29U, A31C
DNA 1: CAATCTGAATTCCGGTCTCCC
DNA 2: TGGTGGCTACGACGGGATT
B29: AGACUAC (DNA:RNA)
RNA: B7 RNA with A26G, G28C, C29U, C30A, A31C
DNA 1: CAATCTGAATTCCGGTCTCCC
DNA 2: TGGTGGCTACGACGGGATT
B30: AAAAAUA (DNA:RNA)
RNA: B7 RNA with G28A, C29A, C30U
DNA 1: CAATCTGAATTCCGGTCTCCC
DNA 2: TGGTGGCTACGACGGGATT
B31: GUCAUAU (DNA:RNA)
RNA: GGGAGACCGGAAUUCAGAUUGUCCGUCAUAUUUAAAUCCCGUCGUAGCCACCA
DNA 1: CAATCTGAATTCCGGTCTCCC
DNA 2: TGGTGGCTACGACGGGATT

These binders were tested against T1, RBFOX1 RRM RbFoxmut (Fox-RRM*) (assay: EMSA; HiTS-Eq, 1 nM pool, 10 min; buffer printed only for the single-RNA assays: 10 mM Tris pH 7.5, 150 mM NaCl, 3.4 mM EDTA, 0.001% NP-40, 30 C). Settings: tags: His6 N-terminal (pET28a); label: 5' 32P.
How it was run: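 Purified RbFox RRM (wild type or mutant) was equilibrated for 10 min in 50 µL with 1 nM of a 5′-radiolabelled pool of RNA with 7 randomized nucleotides, its flanks annealed to DNA oligonucleotides, across increasing protein concentrations. Free RNA was separated by 8% native PAGE, excised, reverse-transcribed, PCR-barcoded and sequenced on an Illumina HiSeq 2500. Relative association constants came from read-count changes of each variant against the control reaction, normalised to the cognate motif.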
B1 was tested, and the binding signal was 0.0801 KA relative to UGCAUGU.
B2 was tested, and the binding signal was 0.11 KA relative to UGCAUGU.
For B3, the binding signal was 0.167 KA relative to UGCAUGU.
For B4, the binding signal was 0.0473 KA relative to UGCAUGU.
For B5, the binding signal was 0.1 KA relative to UGCAUGU.
In the case of B6, the binding signal is reported as 0.0671 KA relative to UGCAUGU.
With B7 the binding signal was 0.101 KA relative to UGCAUGU.
In the case of B8, the binding signal is reported as 0.225 KA relative to UGCAUGU.
B9 was tested, and the binding signal was 0.14 KA relative to UGCAUGU.
In the case of B10, the binding signal is reported as 0.0693 KA relative to UGCAUGU.
B11 was tested, and the binding signal was 0.0911 KA relative to UGCAUGU.
In the case of B12, the binding signal is reported as 0.196 KA relative to UGCAUGU.
For B13, the binding signal was 0.0751 KA relative to UGCAUGU.
For B14, the binding signal was 0.0471 KA relative to UGCAUGU.
For B15, the binding signal was 0.0766 KA relative to UGCAUGU.
In the case of B16, the binding signal is reported as 0.0917 KA relative to UGCAUGU.
B17 was tested, and the binding signal was 0.0831 KA relative to UGCAUGU.
B18 was tested, and the binding signal was 0.141 KA relative to UGCAUGU.
With B19 the binding signal was 0.087 KA relative to UGCAUGU.
In the case of B20, the binding signal is reported as 0.075 KA relative to UGCAUGU.
B21 was tested, and the binding signal was 0.0935 KA relative to UGCAUGU.
In the case of B22, the binding signal is reported as 0.189 KA relative to UGCAUGU.
In the case of B23, the binding signal is reported as 0.107 KA relative to UGCAUGU.
For B24, the binding signal was 0.147 KA relative to UGCAUGU.
B25 was tested, and the binding signal was 0.0895 KA relative to UGCAUGU.
In the case of B26, the binding signal is reported as 0.181 KA relative to UGCAUGU.
For B27, the binding signal was 0.0985 KA relative to UGCAUGU.
For B28, the binding signal was 0.0466 KA relative to UGCAUGU.
In the case of B29, the binding signal is reported as 0.0497 KA relative to UGCAUGU.
In the case of B30, the binding signal is reported as 0.124 KA relative to UGCAUGU.
In the case of B31, the binding signal is reported as 0.132 KA relative to UGCAUGU.
